From the supplement of paper PMC7125110
± gives the standard error. Variants at the floor of the assay are shown more often than the library holds them.

B1: glmS ribozyme (parent)
chain: AUAAAAGCGCCAGAACUACAGAAAUGUAGUUGACGAGGAGGAGGUUUAUCGAAUUUUCGGCGGAUGCCUCCAAA

Variants of: B1
Assay: self-cleavage kobs at 2500 uM GlcN6P; higher = faster cleavage; RNA array
Settings: with glucosamine-6-phosphate
In short: (§1)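 Barcoded glmS ribozyme variants on sequenced MiSeq chips were transcribed in situ by E. coli RNA polymerase and tracked through a hybridised Cy3 probe at 37 °C. Glucosamine-6-phosphate (40 μM to 10 mM) in HEPES/KCl/Mg(OAc)2 buffer was flowed in, and tiles were imaged over ~14 h. Signals were normalised to baseline and to non-cleaving reference variants; per-tile medians were fit to one- or two-exponential decays to give kobs. kcat and KM came from weighted Michaelis–Menten fits across concentrations.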

Variant | self-cleavage kobs at 2500 uM GlcN6P
G35A G60U C61A | < 1e-05 s⁻¹
G9U U30G A48G | < 1e-05 s⁻¹
C16G C50G | 6.05e-05 ± 1.4e-05 s⁻¹
C16G C50U G59A A64G | < 1e-05 s⁻¹
C16A G35A G37C G66A | < 1e-05 s⁻¹
U30C C68A | 3.62e-05 ± 1.1e-05 s⁻¹
G13U G44C G51A A52G | < 1e-05 s⁻¹
C10A C11G A12U A52U | < 1e-05 s⁻¹
C8U G51C C70G | < 1e-05 s⁻¹
A12C A53G C58A G59C | < 1e-05 s⁻¹
C34U A53C | < 1e-05 s⁻¹
A33C G38A A42U A53U | < 1e-05 s⁻¹
G9U C11G G35C A42G | < 1e-05 s⁻¹
G35C A53G U69G C71A | < 1e-05 s⁻¹
A33U A39C G62C | < 1e-05 s⁻¹
C10U G51U G60U | < 1e-05 s⁻¹
C8U G9U C10U U45C A48C C58U | < 1e-05 s⁻¹
C11G A12C A48C | < 1e-05 s⁻¹
C34G A48C U56G C58A G59U | < 1e-05 s⁻¹
C11U A36U G60U | < 1e-05 s⁻¹
A33G G35A A36C G41A C61G C68G | < 1e-05 s⁻¹
C8U G43U A53G | < 1e-05 s⁻¹
C10U G44A A52U | < 1e-05 s⁻¹

Variant | self-cleavage kobs at 2500 uM GlcN6P
U30G A53C U57A C61G C71U | < 1e-05 s⁻¹
G29A G32U A33C G40C | < 1e-05 s⁻¹
G9U A39U A48U C50A U57C G66A | < 1e-05 s⁻¹
C10G A12U G13C | < 1e-05 s⁻¹
A15U A39G A52G | 0.000162 ± 6.5e-05 s⁻¹
G9U C10U C34U A53U G63U | < 1e-05 s⁻¹
A14U G29U U30C | < 1e-05 s⁻¹
G13U A14G C50A | < 1e-05 s⁻¹
A15U A36C C61A | < 1e-05 s⁻¹
A33U C67A U69A | < 1e-05 s⁻¹
A15U A33C C67A | < 1e-05 s⁻¹
C11A G40A G41A | < 1e-05 s⁻¹
C11U G13C G62A C71U | < 1e-05 s⁻¹
C16U G62U C71U | < 1e-05 s⁻¹
A15U G37C U56C | < 1e-05 s⁻¹
A14C U31C U47A G59U | < 1e-05 s⁻¹
C8U G35A G37U A64U | < 1e-05 s⁻¹
U30A U47C | 0.000476 ± 9.7e-05 s⁻¹
G9A A14U A39G G62U | < 1e-05 s⁻¹
G32A A53U U56A C71U | 4.22e-05 ± 1e-05 s⁻¹
C10U A14G A52U C67U | < 1e-05 s⁻¹
C34U U47G G51U | < 1e-05 s⁻¹
C11U U49C U56G | < 1e-05 s⁻¹

Variant | self-cleavage kobs at 2500 uM GlcN6P
A12C A36G A42U U45A G51U | < 1e-05 s⁻¹
A15G G32C G41U A53C C61G | < 1e-05 s⁻¹
C11A A52G C70U | 8.24e-05 ± 3.2e-05 s⁻¹
C10A A48C | < 1e-05 s⁻¹
A36C C50U U56A | < 1e-05 s⁻¹
A14U A15G G35U U45C | < 1e-05 s⁻¹
A12C A14U U31C U56G | 0.0134 ± 0.0063 s⁻¹
A15U G43U A53U C68U | 8.35e-05 ± 3.5e-05 s⁻¹
G29C G37U G62U | < 1e-05 s⁻¹
C10A G60C G63C C67A C68G C70G C71U | 4.85e-05 ± 2.2e-05 s⁻¹
A14G G29C G40C U55A C61U C71U | < 1e-05 s⁻¹
G32U A33U G41U | < 1e-05 s⁻¹
A12G A14G G62U C67A | < 1e-05 s⁻¹
U31C U46A G63C | < 1e-05 s⁻¹
G35C U47C G60U C70A | < 1e-05 s⁻¹
U30A U56A G60U | < 1e-05 s⁻¹
G9U A12G A36C A42U U46A | < 1e-05 s⁻¹
C10U A48C A52G | < 1e-05 s⁻¹
G9C U46A G51C C70G | < 1e-05 s⁻¹
G9C C16U G29C A48C U65A | < 1e-05 s⁻¹
A12C C16A G41U G44A | < 1e-05 s⁻¹
A12C C16U A39U | 0.00306 ± 0.00084 s⁻¹
C11U G32A G63C C68U | < 1e-05 s⁻¹

Variant | self-cleavage kobs at 2500 uM GlcN6P
G9U G43C A53U C58G | < 1e-05 s⁻¹
C10U G32C U47C | < 1e-05 s⁻¹
G35A C50G U54G A64C | 7.23e-05 ± 2.7e-05 s⁻¹
G9C A12U G37U G40C A64C C68A | < 1e-05 s⁻¹
C10U A33G A39G G41C C67U | < 1e-05 s⁻¹
C10U G35U A36U A42U U55C C68U | < 1e-05 s⁻¹
A14C G29U U45C C50G A64C C70U | < 1e-05 s⁻¹
U30C G44A G66U | < 1e-05 s⁻¹
C11U A36U U46A U47A A52C C58U | < 1e-05 s⁻¹
C11G A14C G41C C50U | < 1e-05 s⁻¹
G35A G43U G60U G62A | < 1e-05 s⁻¹
G32C A39G G59A | < 1e-05 s⁻¹
G35U C50U A64C C68G | < 1e-05 s⁻¹
A36C A42U U46A | < 1e-05 s⁻¹
G35U U56A C71U | < 1e-05 s⁻¹
C10G A14U A64C C71U | < 1e-05 s⁻¹
A33C U46A C70U | < 1e-05 s⁻¹
U31C G35C G51C | < 1e-05 s⁻¹
C16U A42G G43U | < 1e-05 s⁻¹
A14C G29U A33U U45C C71U | < 1e-05 s⁻¹
C16A G32U U55G | 0.000117 ± 3.5e-05 s⁻¹
C11G U49G U55G | < 1e-05 s⁻¹
C11U A12U U46A U49A G51A G60C | < 1e-05 s⁻¹

Variant | self-cleavage kobs at 2500 uM GlcN6P
G13U A53G C68G | 4.16e-05 ± 1.5e-05 s⁻¹
A12G C34G A48G | < 1e-05 s⁻¹
A15C G40U C50U C68G | < 1e-05 s⁻¹
C16G G37U G44U U47A G51C C68A | < 1e-05 s⁻¹
C8U C34A G59C | < 1e-05 s⁻¹
A12G G63A | < 1e-05 s⁻¹
A14C A33C G40A G43U A53U | < 1e-05 s⁻¹
A12G A36C G62U | < 1e-05 s⁻¹
G29U G44C C61G | < 1e-05 s⁻¹
C11U A12C G32U | < 1e-05 s⁻¹
G9A G62U U69G | < 1e-05 s⁻¹
A33G A36U G40C U54G C68U | < 1e-05 s⁻¹
C34A C68G | < 1e-05 s⁻¹
U31G C34U A39G U54G G63C | < 1e-05 s⁻¹
A14U G35U C58U C70U | < 1e-05 s⁻¹
C11U G40C U56C | < 1e-05 s⁻¹
G13A U47A G66A | 0.000103 ± 2.2e-05 s⁻¹
A14C G60U C67G C71A | < 1e-05 s⁻¹
G29U A52C C71A | < 1e-05 s⁻¹
C16U U49G G59C C68U | < 1e-05 s⁻¹
A15C G43A G62U | < 1e-05 s⁻¹
C8U A48C G51A U69A | < 1e-05 s⁻¹
C10A C34U G40U C71A | < 1e-05 s⁻¹

Variant | self-cleavage kobs at 2500 uM GlcN6P
G26U G44U C58G C68U | < 1e-05 s⁻¹
C34A U54G | < 1e-05 s⁻¹
A12U G43C A52C G59U C67G | < 1e-05 s⁻¹
G29C G66U | 7.9e-05 ± 2e-05 s⁻¹
C16G G44A C70G | < 1e-05 s⁻¹
A14G A39U C71G | 0.00129 ± 0.00041 s⁻¹
A12G G41U G59A | < 1e-05 s⁻¹
G29U A48C C58A | < 1e-05 s⁻¹
A33C G41C C67G | < 1e-05 s⁻¹
A14U A33U | 2.81e-05 ± 1e-05 s⁻¹
C11G A52U C68U | < 1e-05 s⁻¹
A14C G60U C70U | < 1e-05 s⁻¹
A33C U49C C70U | < 1e-05 s⁻¹
G9A A52U G62C | < 1e-05 s⁻¹
C10U A12U G44U | < 1e-05 s⁻¹
A12G G32C A36C C67G | < 1e-05 s⁻¹
G9C A14G G32C | < 1e-05 s⁻¹
A14G U56G C71U | 0.0458 ± 0.019 s⁻¹
C11U G29C G44U G63U U65C C67U C71U | < 1e-05 s⁻¹
A12U G43A G60U | < 1e-05 s⁻¹
A33U G35A A39C C50U | < 1e-05 s⁻¹
U31G U45G U47G G51C A53C C61A U65C | < 1e-05 s⁻¹
U31A A39U C70G | 0.000232 ± 7.5e-05 s⁻¹

Variant | self-cleavage kobs at 2500 uM GlcN6P
A12G A39U C58U U69A C70G | < 1e-05 s⁻¹
G13C G38A A42C G63A C70U | < 1e-05 s⁻¹
G13A G41A | 3.77e-05 ± 1.2e-05 s⁻¹
C10U C70U | 1.83e-05 ± 8e-06 s⁻¹
G9A G37C G38C | < 1e-05 s⁻¹
G35C A53U | < 1e-05 s⁻¹
A12U U31C G44U C67A | 0.00303 ± 0.001 s⁻¹
G9C G29C A42U | < 1e-05 s⁻¹
C16A G32U G43U C61G | < 1e-05 s⁻¹
A14U C61A C71A | < 1e-05 s⁻¹
G9C G41A A64G | < 1e-05 s⁻¹
A14C U31A U54C U57A | 0.000121 ± 3.3e-05 s⁻¹
G13C A33U U65C C70U | < 1e-05 s⁻¹
A12G G43A G60U C70U | < 1e-05 s⁻¹
A14U G40U G59A C70A | < 1e-05 s⁻¹
C10G G29C C70U | < 1e-05 s⁻¹
C16U A42G G62U | < 1e-05 s⁻¹
A15U U45A U65G | 0.00134 ± 0.00059 s⁻¹

Variants of: B1
Assay: self-cleavage kobs at 10000 uM GlcN6P; higher = faster cleavage; RNA array
Settings: with glucosamine-6-phosphate
In short: as §1

Variant | self-cleavage kobs at 10000 uM GlcN6P
C34U A53C | < 1e-05 s⁻¹
C10U G51U G60U | < 1e-05 s⁻¹
A15U A39G A52G | 0.000571 ± 0.00013 s⁻¹
A15U G37C U56C | < 1e-05 s⁻¹
U30A U47C | 0.000396 ± 9.1e-05 s⁻¹
C10U A14G A52U C67U | < 1e-05 s⁻¹
C10A A48C | < 1e-05 s⁻¹
C10U A33G A39G G41C C67U | < 1e-05 s⁻¹
G32C A39G G59A | < 1e-05 s⁻¹
C16A G32U U55G | 0.000315 ± 4.6e-05 s⁻¹
A12G C34G A48G | < 1e-05 s⁻¹
A12G G63A | < 1e-05 s⁻¹
A14C G60U C67G C71A | < 1e-05 s⁻¹
C34A U54G | < 1e-05 s⁻¹
G29C G66U | 5.98e-05 ± 1e-05 s⁻¹
A14U A33U | 7.63e-05 ± 9.8e-06 s⁻¹
G9A A52U G62C | < 1e-05 s⁻¹
U31G U45G U47G G51C A53C C61A U65C | < 1e-05 s⁻¹
G13A G41A | 5.25e-05 ± 8.1e-06 s⁻¹
C10U C70U | 2.38e-05 ± 7e-06 s⁻¹
G35C A53U | < 1e-05 s⁻¹
A14C U31A U54C U57A | 9.39e-05 ± 1.9e-05 s⁻¹
